Experimental data as given in PubChem BioAssay (NCI).
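In this assay, cells in 96-well plates receive the compound at five concentrations for 48 hours. Endpoints are linearly interpolated between the surrounding concentrations. GI50: concentration for 50% inhibition of growth. TGI denotes the concentration required for complete inhibition of growth.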

System: NCI-H322M lung
Assay: NCI-60 cell line screen, 48 h

| Compound | GI50 | TGI |
| --- | --- | --- |
| N#Cc1ccc(-c2nn(-c3ccc(C(=O)O)cc3)cc2CNc2cc(Cl)cc(C(F)(F)F)c2)cc1 | 10.7 µM | 26.8 µM |
| COc1cc(/C=C/C(=O)c2cnn(-c3cc(=O)[nH]c4ccc(C)cc34)c2C)cc(OC)c1OC | 2.78 µM | 10 µM |
